# Data from the supplement of paper PMC8728848.
# Some of the results follow.
# Assays:
# Assay in all cases: glycan array binding signal (z-score within array); higher = stronger binding
# Settings in all cases: glycan notation: IUPAC condensed, linker removed
# [1] = target: Kdn(a2-3)Gal(b1-4)Glc
# Procedure, shortened: (§1)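 Negative Z-scores can be read as non-binding. The Z-score is calculated within each array and then averaged across arrays of one protein sequence at different concentrations or buffers and across linkers. Arrays, 3228 in all, were curated from the Consortium for Functional Glycomics database and kept only where the protein sequence was available.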
# [2] = target: Kdn(a2-3)Gal(b1-4)GlcNAc
# Procedure, shortened: as §1
# [3] = target: Kdn(a2-3)Gal(b1-4)[Fuc(a1-3)]GlcNAc
# Procedure, shortened: as §1
# [4] = target: Kdn(a2-6)Gal(b1-4)GlcNAc
# Procedure, shortened: as §1
# [5] = target: Man(a1-2)Man(a1-2)Man(a1-3)Man
# Procedure, shortened: as §1
# [6] = target: Man(a1-2)Man(a1-2)Man(a1-6)[Man(a1-3)]Man
# Procedure, shortened: as §1
# [7] = target: Man(a1-2)Man(a1-3)Man
# Procedure, shortened: as §1
# [8] = target: Man(a1-2)Man(a1-3)[Man(a1-2)Man(a1-6)]Man
# Procedure, shortened: as §1
# [9] = target: Man(a1-2)Man(a1-3)[Man(a1-2)Man(a1-6)]Man(a1-6)[Man(a1-2)Man(a1-2)Man(a1-3)]Man
# Procedure, shortened: as §1
# [10] = target: Man(a1-2)Man(a1-3)[Man(a1-2)Man(a1-6)]Man(a1-6)[Man(a1-2)Man(a1-2)Man(a1-3)]Man(b1-4)GlcNAc(b1-4)GlcNAc
# Procedure, shortened: as §1
# [11] = target: Man(a1-2)Man(a1-3)[Man(a1-6)]Man(a1-6)[Man(a1-2)Man(a1-3)]Man(b1-4)GlcNAc(b1-4)GlcNAc
# Procedure, shortened: as §1
# [12] = target: Man(a1-2)Man(a1-6)[Man(a1-3)]Man(a1-6)[Man(a1-2)Man(a1-2)Man(a1-3)]Man
# Procedure, shortened: as §1
# [13] = target: Man(a1-2)Man(a1-6)[Man(a1-3)]Man(a1-6)[Man(a1-2)Man(a1-2)Man(a1-3)]Man(b1-4)GlcNAc(b1-4)GlcNAc
# Procedure, shortened: as §1
# [14] = target: Man(a1-3)[Man(a1-6)]Man
# Procedure, shortened: as §1
# [15] = target: Man(a1-3)[Man(a1-6)]Man(a1-6)[Man(a1-2)Man(a1-3)]Man(b1-4)GlcNAc(b1-4)GlcNAc
# Procedure, shortened: as §1
# [16] = target: Man(a1-3)[Man(a1-6)]Man(a1-6)[Man(a1-3)]Man
# Procedure, shortened: as §1
# [17] = target: Man(a1-3)[Man(a1-6)]Man(a1-6)[Man(a1-3)]Man(b1-4)GlcNAc(b1-4)GlcNAc
# Procedure, shortened: as §1
# [18] = target: Man(a1-3)[Man(a1-6)]Man(b1-4)GlcNAc(b1-4)GlcNAc
# Procedure, shortened: as §1
# [19] = target: Man(a1-3)[Man(a1-6)]Man(b1-4)GlcNAc(b1-4)[Fuc(a1-6)]GlcNAc
# Procedure, shortened: as §1
# [20] = target: Man(a1-6)Man
# Procedure, shortened: as §1
# [21] = target: Man(b1-4)GlcNAc
# Procedure, shortened: as §1
# [22] = target: MurNAc(b1-4)GlcNAc
# Procedure, shortened: as §1
# [23] = target: Neu5Ac(a2-3)Gal
# Procedure, shortened: as §1
# [24] = target: Neu5Ac(a2-3)Gal(b1-3)GalNAc
# Procedure, shortened: as §1
# [25] = target: Neu5Ac(a2-3)Gal(b1-3)GalNAc(b1-3)Gal(a1-4)Gal(b1-4)Glc
# Procedure, shortened: as §1
# [26] = target: Neu5Ac(a2-3)Gal(b1-3)GalNAc(b1-4)[Neu5Ac(a2-3)]Gal(b1-4)Glc
# Procedure, shortened: as §1
# [27] = target: Neu5Ac(a2-3)Gal(b1-3)GalNAc(b1-4)[Neu5Ac(a2-8)Neu5Ac(a2-3)]Gal(b1-4)Glc
# Procedure, shortened: as §1
# [28] = target: Neu5Ac(a2-3)Gal(b1-3)GalNAc6S
# Procedure, shortened: as §1
# [29] = target: Neu5Ac(a2-3)Gal(b1-3)GlcNAc
# Procedure, shortened: as §1
# [30] = target: Neu5Ac(a2-3)Gal(b1-3)GlcNAc(b1-2)Man
# Procedure, shortened: as §1
# [31] = target: Neu5Ac(a2-3)Gal(b1-3)GlcNAc(b1-2)Man(a1-3)[GlcNAc(b1-4)][Neu5Ac(a2-3)Gal(b1-3)GlcNAc(b1-2)Man(a1-6)]Man(b1-4)GlcNAc(b1-4)GlcNAc
# Procedure, shortened: as §1
# [32] = target: Neu5Ac(a2-3)Gal(b1-3)GlcNAc(b1-2)Man(a1-3)[Neu5Ac(a2-3)Gal(b1-3)GlcNAc(b1-2)Man(a1-6)]Man(b1-4)GlcNAc(b1-4)GlcNAc
# Procedure, shortened: as §1
# [33] = target: Neu5Ac(a2-3)Gal(b1-3)GlcNAc(b1-3)Gal(b1-3)GlcNAc
# Procedure, shortened: as §1
# [34] = target: Neu5Ac(a2-3)Gal(b1-3)GlcNAc(b1-3)Gal(b1-4)GlcNAc
# Procedure, shortened: as §1
# [35] = target: Neu5Ac(a2-3)Gal(b1-3)GlcNAc(b1-3)GalNAc
# Procedure, shortened: as §1
# [36] = target: Neu5Ac(a2-3)Gal(b1-3)GlcNAc(b1-4)Gal(b1-4)Glc
# Procedure, shortened: as §1
# [37] = target: Neu5Ac(a2-3)Gal(b1-3)GlcNAc(b1-6)GalNAc
# Procedure, shortened: as §1
# [38] = target: Neu5Ac(a2-3)Gal(b1-3)GlcNAc6S
# Procedure, shortened: as §1
binder,measurement,setting,value
"ECL (Erythrina cristagalli), Q6YD91 (protein) VETISFSFSEFEPGNNDLTLQGAAIITQSGVLQLTKINQNGMPAWDSTGRTLYTKPVHIWDMTTGTVASFETRFSFSIEQPYTRPLPADGLVFFMGPTKSKPAQGYGYLGVFNNSKQDNSYQTLAVEFDTFSNPWDPPQVPHIGIDVNSIRSIKTQPFQLDNGQVANVVIKYDASSKILLAVLVYPSSGAIYTIAEIVDVKQVLPEWVDVGLSGATGAQRDAAETHDVYSWSFHASLPETND",glycan array binding signal (z-score),[1],-0.182
same,glycan array binding signal (z-score),[2],-0.326
same,glycan array binding signal (z-score),[3],-0.054
same,glycan array binding signal (z-score),[4],-0.261
same,glycan array binding signal (z-score),[5],-0.137
same,glycan array binding signal (z-score),[6],-0.188
same,glycan array binding signal (z-score),[7],-0.327
same,glycan array binding signal (z-score),[8],-0.232
same,glycan array binding signal (z-score),[9],-0.262
same,glycan array binding signal (z-score),[10],-0.001
same,glycan array binding signal (z-score),[11],-0.307
same,glycan array binding signal (z-score),[12],0.06
same,glycan array binding signal (z-score),[13],-0.143
same,glycan array binding signal (z-score),[14],-0.186
same,glycan array binding signal (z-score),[15],0.227
same,glycan array binding signal (z-score),[16],-0.185
same,glycan array binding signal (z-score),[17],-0.238
same,glycan array binding signal (z-score),[18],-0.229
same,glycan array binding signal (z-score),[19],-0.568
same,glycan array binding signal (z-score),[20],-0.165
same,glycan array binding signal (z-score),[21],-0.306
same,glycan array binding signal (z-score),[22],-0.266
same,glycan array binding signal (z-score),[23],-0.366
same,glycan array binding signal (z-score),[24],-0.304
same,glycan array binding signal (z-score),[25],-0.191
same,glycan array binding signal (z-score),[26],-0.322
same,glycan array binding signal (z-score),[27],-0.235
same,glycan array binding signal (z-score),[28],-0.378
same,glycan array binding signal (z-score),[29],-0.349
same,glycan array binding signal (z-score),[30],-0.135
same,glycan array binding signal (z-score),[31],-0.365
same,glycan array binding signal (z-score),[32],-0.069
same,glycan array binding signal (z-score),[33],-0.371
same,glycan array binding signal (z-score),[34],-0.337
same,glycan array binding signal (z-score),[35],-0.426
same,glycan array binding signal (z-score),[36],-0.241
same,glycan array binding signal (z-score),[37],-0.367
same,glycan array binding signal (z-score),[38],-0.056
